Test results published in the supplement of paper PMC11125491.
± gives the standard deviation of the averaged measurements. Growth of baker's yeast expressing single-residue variants of Pneumocystis jirovecii dihydrofolate reductase in 8.8 or 44 µM methotrexate (about 75% and 90% inhibition of the wild type). Selection coefficient per generation; 0 = like wild type, above 0 = less sensitive, below 0 = more sensitive or loss of function. No active / inactive call per row; the paper calls resistant above 0.220 (8.8 µM) or 0.243 (44 µM) together with a significance test. At 44 µM about 15% of codons end with one read or none, so the lowest values are floors (replicate rank correlation 0.74; 0.94 at 8.8 µM).

B1: UniProt A0EPZ9; numbered along this chain (parent)
chain: MDWQKSLTLIVALTLSRGIGLKNDLPWKLKSDMMFFSRVTSGLLVTRSTGQMNVVLMGRKTWESLPAHSRPLKNRINVVISRQEVLDLGGGAYHARSLDDALALLSQIYDSTSKIQLNRVFVIGGGELCKAAMEHSRLNRIIATVIHNEVDCDVFFPIDFRSSQSCLPWRKQDHSVLEAWVGSKVPQGKINENGFIYEFEMWIRDI

Variants of: B1
Assay: selection coefficient against synonymous wild-type codons (log2 per generation); higher = faster growth than wild type
Conditions: with Saccharomyces cerevisiae carrying the variant on a plasmid
Description: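 Pooled growth of yeast carrying single-residue variants of P. jirovecii dihydrofolate reductase (own DFR1 gene intact), two passages at 30 °C, three cultures, sequenced before and after. Codons with under 15 starting reads are left out; codons of one change are averaged.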

Variant | selection coefficient against synonymous wild-type codons (log2) (methotrexate 8.8 µM) | selection coefficient against synonymous wild-type codons (log2) (methotrexate 44 µM)
M201Y | -0.0251 ± 0.036 | -0.00259 ± 0.14
W202A | -0.254 ± 0.11 | -0.133 ± 0.045
W202C | -0.264 ± 0.11 | -0.329 ± 0.019
W202D | -0.592 ± 0.11 | -0.266 ± 0.035
W202E | -0.798 ± 0.037 | -0.421 ± 0.044
W202F | 0.0926 ± 0.057 | 0.105 ± 0.079
W202G | -0.659 ± 0.16 | -0.387 ± 0.098
W202H | -0.074 ± 0.024 | -0.112 ± 0.016
W202I | -0.049 ± 0.08 | -0.0627 ± 0.095
W202K | -0.606 ± 0.065 | -0.328 ± 0.12
W202L | 0.107 ± 0.058 | 0.0197 ± 0.12
W202M | 0.0886 ± 0.047 | 0.0353 ± 0.023
W202N | -0.516 ± 0.11 | -0.192 ± 0.072
W202P | -0.516 ± 0.065 | -0.151 ± 0.053
W202Q | -0.389 ± 0.089 | -0.287 ± 0.052
W202R | -0.26 ± 0.094 | -0.142 ± 0.062
W202S | -0.365 ± 0.11 | -0.134 ± 0.1
W202T | -0.679 ± 0.12 | -0.24 ± 0.085
W202V | -0.227 ± 0.077 | -0.174 ± 0.091
W202Y | 0.0883 ± 0.051 | -0.0689 ± 0.056
I203A | 0.0908 ± 0.068 | 0.0558 ± 0.061
I203C | 0.0871 ± 0.029 | 0.0454 ± 0.037
I203D | 0.153 ± 0.042 | 0.151 ± 0.092
I203E | 0.195 ± 0.018 | 0.196 ± 0.05
I203F | -0.0936 ± 0.059 | -0.0894 ± 0.043

Variant | selection coefficient against synonymous wild-type codons (log2) (methotrexate 8.8 µM) | selection coefficient against synonymous wild-type codons (log2) (methotrexate 44 µM)
I203G | 0.0625 ± 0.039 | 0.0116 ± 0.11
I203K | 0.0965 ± 0.099 | 0.0691 ± 0.069
I203L | -0.0665 ± 0.054 | -0.0457 ± 0.079
I203M | -0.0336 ± 0.058 | 0.0199 ± 0.063
I203N | 0.107 ± 0.073 | 0.0985 ± 0.071
I203Q | 0.149 ± 0.048 | 0.159 ± 0.062
I203R | 0.00454 ± 0.063 | -0.0471 ± 0.13
I203S | 0.0923 ± 0.028 | 0.0382 ± 0.076
I203T | 0.0935 ± 0.057 | 0.0789 ± 0.18
I203V | 0.0569 ± 0.043 | 0.0897 ± 0.095
I203W | -0.201 ± 0.036 | -0.176 ± 0.07
I203Y | -0.0797 ± 0.051 | -0.0767 ± 0.085
R204A | -0.165 ± 0.086 | -0.24 ± 0.1
R204C | -0.159 ± 0.051 | -0.0609 ± 0.025
R204D | -0.364 ± 0.077 | -0.363 ± 0.029
R204E | -0.187 ± 0.058 | -0.139 ± 0.077
R204F | -0.426 ± 0.13 | -0.475 ± 0.065
R204G | -0.272 ± 0.096 | -0.292 ± 0.11
R204H | -0.0629 ± 0.032 | -0.0503 ± 0.098
R204I | -0.405 ± 0.086 | -0.388 ± 0.13
R204K | 0.0549 ± 0.051 | 0.00733 ± 0.16
R204L | -0.378 ± 0.059 | -0.317 ± 0.065
R204M | -0.291 ± 0.043 | -0.261 ± 0.027
R204N | -0.154 ± 0.06 | -0.235 ± 0.13
R204P | -0.0711 ± 0.079 | -0.145 ± 0.12

Variant | selection coefficient against synonymous wild-type codons (log2) (methotrexate 8.8 µM) | selection coefficient against synonymous wild-type codons (log2) (methotrexate 44 µM)
R204Q | -0.141 ± 0.14 | -0.171 ± 0.14
R204S | -0.176 ± 0.086 | -0.231 ± 0.13
R204T | -0.182 ± 0.034 | -0.18 ± 0.094
R204V | -0.351 ± 0.062 | -0.277 ± 0.12
R204W | -0.402 ± 0.065 | -0.371 ± 0.11
R204Y | -0.357 ± 0.044 | -0.192 ± 0.014
D205A | -0.175 ± 0.08 | -0.312 ± 0.13
D205C | -0.259 ± 0.068 | -0.24 ± 0.072
D205E | -0.0762 ± 0.038 | -0.125 ± 0.033
D205F | -0.517 ± 0.044 | -0.335 ± 0.086
D205G | -0.148 ± 0.06 | -0.16 ± 0.091
D205H | -0.197 ± 0.068 | -0.24 ± 0.23
D205I | -0.367 ± 0.05 | -0.415 ± 0.1
D205K | -0.119 ± 0.047 | -0.296 ± 0.073
D205L | -0.456 ± 0.14 | -0.253 ± 0.32
D205M | -0.399 ± 0.026 | -0.256 ± 0.14
D205N | -0.118 ± 0.062 | -0.23 ± 0.14
D205P | -0.127 ± 0.12 | -0.143 ± 0.099
D205Q | -0.147 ± 0.15 | -0.189 ± 0.21
D205R | -0.276 ± 0.1 | -0.266 ± 0.088
D205S | -0.173 ± 0.063 | -0.253 ± 0.084
D205T | -0.243 ± 0.12 | -0.165 ± 0.14
D205V | -0.231 ± 0.17 | -0.0988 ± 0.25
D205W | -0.585 ± 0.11 | -0.463 ± 0.11
D205Y | -0.467 ± 0.043 | -0.479 ± 0.08
